Measured values taken from PubChem BioAssay AID624296 (National Center for Advancing Translational Sciences (NCATS), 2012).
Out of some 350,000 compounds screened, about 9,900 (2.8%) were called active. Inconclusive results, whose numbers are uncertain, are shown with a selection of clear calls. Calls come from the whole dose curve; as a rule, active = well fitted activation curve with a large enough effect; inconclusive = small, poorly fitted or top-dose-only effect; inactive = no such curve, though single readings can be large or run the other way. Potencies of inconclusive entries are left out as doubtful fits.

Assay: A quantitative high throughput screen for small molecules that induce DNA re-replication in MCF 10a normal breast cells. For activity, positive = re-replication: % of control where 0% means no effect. Note: nearly all actives have a fitted effect of over 50% in size.
Conditions: MCF 10A DNA re-replication, Hoechst nuclear intensity, 48 h; activity, positive = re-replication: at 46.1 µM (top of the series)
Potency is the fitted concentration of half-maximal effect; tags give direction and shape of the fitted curve.

Row | SMILES | Potency | activity, positive = re-replication
1 | Cc1ncc([N+](=O)[O-])n1Cc1ccc(F)cc1 | inactive | –
2 | C=CCOc1c(Cl)cc(CNc2ccc(N(C)C)cc2)cc1OC | inconclusive [activator, single point] | –
3 | COc1ccc(C(=O)NC(=C(Cl)Cl)S(=O)(=O)c2ccc(C)cc2)cc1 | active: 10.3 µM | –
4 | Oc1c(Br)cc(Br)cc1/C=N/c1nccs1 | inconclusive [activator, single point] | –
5 | O=[S@]1Oc2ccccc2-c2ccccc21 | inactive | –
6 | CCOC(=O)c1ccc2[nH]c3c(c2c1)CCCC3NC=O (configuration not stated) | inconclusive [activator, full curve] | –
7 | O=C(c1csc(Nc2ccccc2Cl)n1)N1CCCC1 | inactive | –
8 | O=C1CC(NC(=O)C(F)(F)F)c2cc3c(cc21)OCO3 (configuration not stated) | inactive | –
9 | O=C1CCCc2cc3c(cc21)CCCC3 | inactive | –
10 | O=C(C=Cc1cccs1)c1cccs1 | inconclusive [activator, single point] | –
11 | CCC1C(=NO)C(CC)C(c2ccccc2)NC1c1ccccc1 (configuration not stated) | inconclusive [activator, single point] | –
12 | Cc1ccc(S(=O)(=O)NC(=O)c2ccc(-c3ccc(-c4ccccc4)cc3)o2)c(C)c1 | inconclusive [activator, single point] | –
13 | COC(=O)c1c(N2C(=O)Nc3ccccc3N2O)sc(C)c1C | inactive | –
14 | Cc1cc(NC(=O)CCC(=O)N(CC(=O)NCC2CCCO2)c2cccc(C)c2C)no1 (configuration not stated) | inconclusive [activator, partial curve, poor fit] | –
15 | CCOc1cc(-c2cc(-c3ccccc3)nc(N)c2C#N)ccc1O | inconclusive [activator, single point] | –
16 | COc1ccc(-n2c(C)c(C(C)=O)c3cc(O)ccc32)cc1 | inactive | –
17 | O=C(CCc1ccc(S(=O)(=O)N2CCOCC2)cc1)Nc1nc(COc2ccccc2)cs1 | inconclusive [activator, single point] | –
18 | Cc1sc2ncnc(N3CCC(C(=O)NCC(=O)Nc4ccc(F)c(F)c4)CC3)c2c1C | inconclusive [activator, single point] | –
19 | CCOC(=O)c1cc(=O)c2ccc(OCc3ccccc3)cc2o1 | inconclusive [activator, partial curve, poor fit] | –
20 | Cc1cc2nc(C)n(CCCNC(=O)Nc3cccc4ccccc34)c2cc1C | inconclusive [activator, partial curve, poor fit] | –
21 | CCC1=NN2C(=N)/C(=C/c3cc(C)n(Cc4ccccc4)c3C)C(=O)N=C2S1 | inconclusive [activator, single point] | –
22 | CC(C)(C)OC(=O)n1cc(CCO)c2ccccc21 | – | inconclusive: -22.1% [activator]
23 | FCCCOc1ccc(-c2nccc(-c3ccc(Cl)cc3)n2)cc1 | inactive | –
24 | CCOc1ccc(C(C)=O)cc1N1C(=O)C2C3C=CC(C3)C2C1=O (configuration not stated) | inactive | –

Row | SMILES | Potency | activity, positive = re-replication
25 | Cc1ccc(OCC(=O)N/N=C/C=C/c2ccco2)cc1C | inconclusive [activator, single point] | –
26 | CCC(C)n1c(=O)c(C(=O)Nc2ccccc2S(N)(=O)=O)c(O)c2ccccc21 (configuration not stated) | inconclusive [activator, partial curve, poor fit] | –
27 | O=CNC1CCCc2c1[nH]c1ccc(Cl)cc21 (configuration not stated) | inconclusive [activator, single point] | –
28 | COc1cccc(N2[C@@H](CC(C)=O)c3ccc(/C=C/C(C)=O)cc3S2(=O)=O)c1 | active: 20.6 µM | –
29 | Cn1c(N)c(C(=O)COC(=O)c2cc(-c3ccco3)nc3ccccc23)c(=O)n(C)c1=O | inactive | –
30 | N=c1c(C(=O)NCc2ccc(F)cc2)cc2c(=O)n3ccccc3nc2n1CCCN1CCOCC1 | active: 2.82 µM | –
31 | CCOc1ccccc1NC(=S)NCCc1ccccc1 | inactive | –
32 | COc1ccc(-c2nn(-c3ccccc3)cc2/C=C/C(=O)O)cc1[N+](=O)[O-] | inconclusive [activator, single point] | –
33 | Cc1ccc(C(C(=O)NCc2ccc(F)cc2)N(Cc2ccco2)C(=O)c2snc(C(N)=O)c2N)o1 (configuration not stated) | active: 16.4 µM | –
34 | CCCCCCCCC[n+]1cccc2c3ccccc3ccc21 | inconclusive [activator, partial curve, poor fit] | –
35 | CC1CCN(C(=O)CSc2nc(C3CC3)nc3ccccc23)CC1 | inactive | –
36 | CCCS(=O)(=O)C(=C(Nc1ccccc1)Nc1ccccc1)S(=O)(=O)CCC | inconclusive [activator, single point] | –
37 | Oc1ccc(Cl)cc1Nc1nc(NCC2CCCO2)c2ccccc2n1 (configuration not stated) | active: 23.1 µM | –
38 | O=C(O)c1cccc2c1C(=O)N(c1ccc3c(c1)Cc1ccccc1-3)C2=O | inactive | –
39 | O=C(N/N=C/c1ccco1)c1cc(-c2ccncc2)nc2ccccc12 | inconclusive [activator, full curve, poor fit] | –
40 | CCN(CC)c1ccc(NC(=O)Cn2nnc(-c3cccc(OC)c3OC)n2)c(C)c1 | inconclusive [activator, partial curve] | –
41 | Cn1c(=O)n(C)c2cc([N+](=O)[O-])c(N3CCN(S(=O)(=O)c4ccccc4)CC3)cc21 | inactive | –
42 | Cc1cc(C)nc(N/N=C/c2ccccc2OCc2ccc(Br)cc2)n1 | inconclusive [activator, partial curve] | –
43 | O=C1S/C(=C/c2ccc(N3CCOCC3)o2)C(=O)N1Cc1c(F)cccc1Cl | inconclusive [activator, partial curve, poor fit] | –
44 | O=C(/C=C/c1ccccc1Cl)Nc1ccccc1 | inactive | –
45 | CCCOC(=O)/C(=C\C=C\c1ccco1)NC(=O)c1ccccc1 | inconclusive [activator, single point] | –
46 | Cn1ncc(Cl)c1C(=O)N/N=C/c1cc2c(cc1[N+](=O)[O-])OCO2 | inactive | –
47 | CCN(CC)c1ccc(CNC(=O)C/C(C)=N/NC(=O)COc2ccc(C)cc2Br)cc1 | inconclusive [activator, single point] | –
